In PubChem BioAssay (NCATS):
The shares of active, inactive and inconclusive entries below differ from those in the screen. No potency is given beside an inconclusive call; the fits are too rough. Active and inactive are the calls of the source. Calls come from the whole dose curve; as a rule, active = well fitted cell-killing curve with a large enough effect; inconclusive = small, poorly fitted or top-dose-only effect, or effect the other way; inactive = no such curve, though single readings can be large or run the other way.

assay: Viability qHTS for spleen associated tyrosine kinase inhibitor (SYKi) drug resistant MV4-11 cells (AID 1963824); details: SYKi-resistant MV4-11 viability, CellTiter-Glo, 72 h; series mostly up to 45 µM; note: nearly all actives have a fitted effect of over 35% in size
Procedure, shortened: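 SYK inhibitor-resistant MV4-11 AML cells, 500 per well, added to predispensed compounds and incubated 72 hr at 37 C, 5% CO2. Viability measured by CellTiter-Glo luminescence after 10 min at room temperature.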
Potency is the fitted concentration of half-maximal effect; tags give direction and shape of the fitted curve.

| Structure (SMILES) | Potency |
| --- | --- |
| C/C=C/C=C/C(O)=C1/C(=O)[C@]2(C)C(=O)[C@@](C)(O)[C@H]1[C@H]([C@@]1(C)OC(=O)C(C)=C1O)[C@H]2C(=O)CC/C=C/C | inconclusive [cytotoxic, single point] |
| c1ccc(-c2[nH]ncc2-c2ccnc3ccccc23)nc1 | inconclusive [cytotoxic, single point] |
| CCCCC1CCC(c2nc(-c3ccncc3)no2)CC1 (stereo not drawn) | inconclusive [cytotoxic, partial curve, poor fit] |
| COc1cc(S(N)(=O)=O)cc(C(=O)O)c1OC | inactive |
| CC(C)c1noc(C2CCN(c3ncnc(Nc4ccc(S(C)(=O)=O)cc4F)c3[N+](=O)[O-])CC2)n1 | inactive |
| COc1ccc(S(=O)(=O)N2CCC[C@H]2C(=O)Nc2cc(C)cc(C)c2)cc1 | inconclusive [cytotoxic, partial curve] |
| CN1CCN(c2nc(-c3ccc(C(=O)NC4(C(=O)NCC#N)CCCCC4)cc3)cs2)CC1 | inactive |
| CCC/C=C/C=C/C1CC(O)C(O)C(=O)C1CO (stereo not drawn) | inactive |
| COc1cccc(C(=O)N2CCN(C(=O)COc3cccc(C)c3)CC2)c1OC | inconclusive [cytotoxic, partial curve, poor fit] |
| C/C=C/c1ccc(O)c(OC)c1 | inactive |
| Cc1cc(-c2nc(-c3ccc(OC(F)(F)F)cc3)no2)nn1Cc1ccnc(N2CCN(C3CC3)CC2)c1 | inconclusive [cytotoxic, full curve, poor fit] |
| CCCCCCCCCCCCCCCC[N+](C)(C)Cc1ccccc1 | active: 1880 nM |
| COc1cc([C@@H]2Oc3c(OC)cc(CCCO)cc3[C@@H]2CO[C@@H]2O[C@H](CO)[C@@H](O)[C@H](O)[C@H]2O)ccc1O | inactive |
| COc1ccc([C@@H]2N[C@H](C(=O)O)Cc3c2[nH]c2ccccc32)cc1CN1CCN(c2ccccc2F)CC1 | inconclusive [cytotoxic, single point] |
| O=C1NCCSc2c1sc1ccc(O)cc21 | active: 2910 nM |
| CN(CC1(C)CCCO1)S(=O)(=O)c1ccc(Cl)c(S(N)(=O)=O)c1 (stereo not drawn) | inconclusive [rising, full curve] |
| CC1=C(C)C(=O)OC(C(C)(O)C2CCC3C4CC=C5CC(OC6OC(COC7OC(CO)C(O)C(O)C7O)C(O)C(O)C6O)CC(O)C5(C)C4CCC32C)C1 (stereo not drawn) | inactive |
| OC[C@H]1O[C@@H](n2cnc3c2NC=NC[C@H]3O)C[C@@H]1O | inactive |
| CN1C2CCC1CC(OC(=O)[C@H](CO)c1ccccc1)C2 (stereo partly drawn) | inconclusive [cytotoxic, full curve, poor fit] |
| C=C1C(=O)O[C@H](CCC)[C@H]1C(=O)O | inactive |
| COC(=O)C1=COC(O[C@@H]2O[C@H](COC(=O)/C=C/c3ccc(O)cc3)[C@@H](O)[C@H](O)[C@H]2O)C2C(CO)=CCC12 (stereo partly drawn) | inactive |
| COc1cc(OC)nc(O[C@H](C(=O)O)C(OC)(c2ccccc2)c2ccccc2)n1 | inconclusive [rising, full curve] |
| Cc1cccc(C)c1NC(=O)c1cc(S(N)(=O)=O)c(Cl)cc1O | inconclusive [cytotoxic, partial curve, poor fit] |
| C[C@H]1C(=O)N2c3ccccc3[C@@]3(O)C[C@@H]4C(=O)N[C@](C)(c5nc6ccccc6c(=O)n54)N1[C@@H]23 | inconclusive [cytotoxic, full curve, poor fit] |
| O=C(NN1CCCCC1)c1nn(-c2ccc(Cl)cc2Cl)c(-c2ccc(C#Cc3ccc(C(F)(F)F)cc3)s2)c1CNS(=O)(=O)N1CCCC1 | inactive |
| NS(=O)(=O)c1cc2c(cc1Cl)NC(CC1CCCC1)NS2(=O)=O (stereo not drawn) | inactive |
| Cc1cc(Cl)ccc1COc1ccnn1-c1cc(C(=O)O)ccn1 | inconclusive [cytotoxic, partial curve, poor fit] |
| O=C(OCc1ccccc1O[C@@H]1O[C@H](CO)[C@@H](O)[C@H](O)[C@H]1O)C1(O)C=CCCC1O (stereo partly drawn) | inactive |
